Assay results from the supplement of paper PMC10724272.
MIC of invasive clinical C. tropicalis isolates, CLSI broth microdilution (fluconazole 0.12-256 mg/L, up to 1,024 for the azole-resistant cluster and its neighbour group; other ranges not stated); higher = less susceptible. Call: susceptible or wild type [S] / resistant or non-wild type [R] by CLSI breakpoints or cut-offs; intermediate and dose-dependent carry no call. '<=' and '>=' at the end values are inferred; the source marks only some of them. Isolates are numbered anew.

Compound: CCCCCOc1ccc(-c2cc(-c3ccc(C(=O)N[C@H]4C[C@@H](O)[C@@H](O)NC(=O)[C@@H]5[C@@H](O)[C@@H](C)CN5C(=O)[C@H]([C@H](O)CC(N)=O)NC(=O)[C@H]([C@H](O)[C@@H](O)c5ccc(O)c(OS(=O)(=O)O)c5)NC(=O)[C@@H]5C[C@@H](O)CN5C(=O)[C@H]([C@@H](C)O)NC4=O)cc3)no2)cc1 [micafungin]
Experiment: CLSI broth microdilution.

Test System | MIC
Candida tropicalis isolate 337 (ERG11 copies: 2, Erg11p: no key change) | 0.03 mg/L [S]
Candida tropicalis isolate 3 (ERG11 copies: 7, Erg11p: Y132F, S154F (heterozygous)) | 0.03 mg/L [S]
Candida tropicalis isolate 381 (ERG11 copies: 7, Erg11p: Y132F, S154F (heterozygous)) | 0.06 mg/L [S]
Candida tropicalis isolate 97 (ERG11 copies: 2, Erg11p: no key change) | 0.03 mg/L [S]
Candida tropicalis isolate 433 (ERG11 copies: 2, Erg11p: no key change) | 0.03 mg/L [S]
Candida tropicalis isolate 135 (ERG11 copies: 2, Erg11p: no key change) | 0.03 mg/L [S]
Candida tropicalis isolate 151 (ERG11 copies: 2, Erg11p: no key change) | 0.06 mg/L [S]
Candida tropicalis isolate 86 (ERG11 copies: 2, Erg11p: no key change) | 0.03 mg/L [S]
Candida tropicalis isolate 371 (ERG11 copies: 2, Erg11p: no key change) | 0.03 mg/L [S]
Candida tropicalis isolate 333 (ERG11 copies: 2, Erg11p: no key change) | 0.03 mg/L [S]
Candida tropicalis isolate 218 (ERG11 copies: 2, Erg11p: no key change) | 0.06 mg/L [S]
Candida tropicalis isolate 448 (ERG11 copies: 7, Erg11p: Y132F, S154F (heterozygous)) | 0.015 mg/L [S]
Candida tropicalis isolate 339 (ERG11 copies: 3, Erg11p: Y132F, S154F (heterozygous)) | 0.03 mg/L [S]
Candida tropicalis isolate 177 (ERG11 copies: 2, Erg11p: no key change) | 0.015 mg/L [S]
Candida tropicalis isolate 53 (ERG11 copies: 2, Erg11p: no key change) | 0.03 mg/L [S]
Candida tropicalis isolate 335 (ERG11 copies: 2, Erg11p: no key change) | 0.015 mg/L [S]

Test System | MIC
Candida tropicalis isolate 428 (ERG11 copies: 2, Erg11p: Y257H (homozygous)) | 0.03 mg/L [S]
Candida tropicalis isolate 176 (ERG11 copies: 2, Erg11p: no key change) | 0.03 mg/L [S]
Candida tropicalis isolate 292 (ERG11 copies: 2, Erg11p: no key change) | 0.03 mg/L [S]
Candida tropicalis isolate 432 (ERG11 copies: 2, Erg11p: no key change) | 0.015 mg/L [S]
Candida tropicalis isolate 186 (ERG11 copies: 2, Erg11p: no key change) | 0.015 mg/L [S]
Candida tropicalis isolate 414 (ERG11 copies: 2, Erg11p: no key change) | 0.03 mg/L [S]
Candida tropicalis isolate 323 (ERG11 copies: 2, Erg11p: no key change) | 0.06 mg/L [S]
Candida tropicalis isolate 9 (ERG11 copies: 2, Erg11p: no key change) | 0.03 mg/L [S]
Candida tropicalis isolate 172 (ERG11 copies: 2, Erg11p: no key change) | 0.06 mg/L [S]
Candida tropicalis isolate 61 (ERG11 copies: 2, Erg11p: no key change) | 0.03 mg/L [S]
Candida tropicalis isolate 343 (ERG11 copies: 2, Erg11p: no key change) | 0.03 mg/L [S]
Candida tropicalis isolate 423 (ERG11 copies: 8, Erg11p: Y132F, S154F (heterozygous)) | 0.06 mg/L [S]
Candida tropicalis isolate 108 (ERG11 copies: 2, Erg11p: Y132F, S154F (heterozygous)) | 0.06 mg/L [S]
Candida tropicalis isolate 253 (ERG11 copies: 2, Erg11p: no key change) | 0.06 mg/L [S]
Candida tropicalis isolate 219 (ERG11 copies: 2, Erg11p: no key change) | 0.03 mg/L [S]
Candida tropicalis isolate 375 (ERG11 copies: 2, Erg11p: no key change) | 0.03 mg/L [S]

Compound: CCCCCOc1ccc(-c2ccc(-c3ccc(C(=O)N[C@H]4C[C@@H](O)[C@@H](O)NC(=O)[C@@H]5[C@@H](O)[C@@H](C)CN5C(=O)[C@H]([C@@H](C)O)NC(=O)[C@H]([C@H](O)[C@@H](O)c5ccc(O)cc5)NC(=O)[C@@H]5C[C@@H](O)CN5C(=O)[C@H]([C@@H](C)O)NC4=O)cc3)cc2)cc1 [anidulafungin]
Experiment: CLSI broth microdilution.

Test System | MIC
Candida tropicalis isolate 424 (ERG11 copies: 2, Erg11p: no key change) | 0.03 mg/L [S]
Candida tropicalis isolate 192 (ERG11 copies: 2, Erg11p: no key change) | 0.03 mg/L [S]
Candida tropicalis isolate 212 (ERG11 copies: 2, Erg11p: no key change) | ≤ 0.015 mg/L [S]
Candida tropicalis isolate 98 (ERG11 copies: 2, Erg11p: no key change) | 0.03 mg/L [S]
Candida tropicalis isolate 337 (ERG11 copies: 2, Erg11p: no key change) | 0.12 mg/L [S]
Candida tropicalis isolate 3 (ERG11 copies: 7, Erg11p: Y132F, S154F (heterozygous)) | 0.03 mg/L [S]
Candida tropicalis isolate 381 (ERG11 copies: 7, Erg11p: Y132F, S154F (heterozygous)) | 0.12 mg/L [S]
Candida tropicalis isolate 97 (ERG11 copies: 2, Erg11p: no key change) | ≤ 0.015 mg/L [S]
Candida tropicalis isolate 433 (ERG11 copies: 2, Erg11p: no key change) | 0.12 mg/L [S]
